# According to patent publication US20060084145A1 (Janssen / Centocor, published 2006):
# B1: sRAGE mimetibody V-C-C in IgG4 with S228P and P234A/L235A mutations (VCC-G4) (Fc fusion)
# chain: AQNITARIGEPLVLKCKGAPKKPPQRLEWKLNTGRTEAWKVLSPQGGGPWDSVARVLPNGSLFLPAVGIQDEGIFRCQAMNRNGKETKSNYRVRVYQIPGKPEIVDSASELTAGVPNKVGTCVSEGSYPAGTLSWHLDGKPLVPNEKGVSVKEQTRRHPETGLFTLQSELMVTPARGGDPRPTFSCSFSPGLPRHRALRTAPIQPRVWEPVPLEEVQLVVEPEGGAVAPGGTVTLTCEVPAQPSPQIHWMKDGVPLPLPPSPVLILPEIGPQDQGTYSCVATHSSHGSGGGSGTLVTVSS[human IgG4 Fc with S228P F234A L235A (EU numbers) not given here]
# notes: Complete mimetibody polypeptide; Transiently expressed in HEK293E cells
# B2: sRAGE mimetibody V-C-C in IgG1 with C220A and L234A/L235A mutations (VCC-G1) (Fc fusion)
# chain: AQNITARIGEPLVLKCKGAPKKPPQRLEWKLNTGRTEAWKVLSPQGGGPWDSVARVLPNGSLFLPAVGIQDEGIFRCQAMNRNGKETKSNYRVRVYQIPGKPEIVDSASELTAGVPNKVGTCVSEGSYPAGTLSWHLDGKPLVPNEKGVSVKEQTRRHPETGLFTLQSELMVTPARGGDPRPTFSCSFSPGLPRHRALRTAPIQPRVWEPVPLEEVQLVVEPEGGAVAPGGTVTLTCEVPAQPSPQIHWMKDGVPLPLPPSPVLILPEIGPQDQGTYSCVATHSSHGTLVTVSS[human IgG1 Fc with changes not given here]
# notes: Complete mimetibody polypeptide (sRAGE V-C-C, J region, IgG1 hinge C220A, CH2-CH3 L234A/L235A); Expressed in SP2/0 cells, protein A purified; also called V-C-C containing sRAGE mimetibody
# B3: sRAGE mimetibody V in IgG1 with C220A and L234A/L235A mutations (V-G1) (Fc fusion)
# chain: AQNITARIGEPLVLKCKGAPKKPPQRLEWKLNTGRTEAWKVLSPQGGGPWDSVARVLPNGSLFLPAVGIQDEGIFRCQAMNRNGGTLVTVSS[human IgG1 Fc with changes not given here]
# notes: Complete mimetibody polypeptide; Expressed in SP2/0 cells; also called V region containing sRAGE mimetibody
# Target: T1, Advanced Glycated Endproducts (AGE) prepared from bovine serum albumin with glycoaldehyde (bovine, UniProt P02769, glycated by incubation with 50 mM glycoaldehyde for 3 days at 37 C (modified residues not stated); 125-I labeled in Example 3)
# T1 construct: Chemically modified protein; a heterogeneous product; also called AGEs
# Assay: solid phase ELISA, plate coated with AGE, detection with HRP anti-human Fc
# T1 sequence (P02769 25-607 limits assumed): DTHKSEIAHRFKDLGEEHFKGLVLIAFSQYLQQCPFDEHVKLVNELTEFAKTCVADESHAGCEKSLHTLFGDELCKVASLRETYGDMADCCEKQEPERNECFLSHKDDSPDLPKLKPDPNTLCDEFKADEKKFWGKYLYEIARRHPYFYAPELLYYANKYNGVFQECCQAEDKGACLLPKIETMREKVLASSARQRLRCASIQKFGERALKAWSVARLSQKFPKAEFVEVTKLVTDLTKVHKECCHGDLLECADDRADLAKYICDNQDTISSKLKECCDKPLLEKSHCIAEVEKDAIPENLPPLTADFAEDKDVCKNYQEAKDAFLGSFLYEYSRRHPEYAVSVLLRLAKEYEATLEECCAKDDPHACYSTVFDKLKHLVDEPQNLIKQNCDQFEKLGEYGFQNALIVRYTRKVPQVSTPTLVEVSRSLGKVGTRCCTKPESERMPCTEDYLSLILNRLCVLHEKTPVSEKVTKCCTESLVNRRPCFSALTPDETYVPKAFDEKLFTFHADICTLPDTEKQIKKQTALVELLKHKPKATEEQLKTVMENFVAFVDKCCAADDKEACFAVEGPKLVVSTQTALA
row,EC50 (read off the curve),Binder
1,~0.2 µg/mL,B1
2,~0.7 µg/mL,B2
3,~20 µg/mL,B3

# Target: T1, Advanced Glycated Endproducts (AGE) …
# Assay: solid phase ELISA, AGE coated on plate, anti-human Fc detection
row,Kd,Binder
1,0.18 µg/mL,B1
2,0.62 µg/mL,B2
3,17.7 µg/mL,B3
